# Measured values from PMC6919601, “Identification of Plasmodium dipeptidyl aminopeptidase allosteric inhibitors by high throughput screening” (PLoS ONE, 2019).
# Among all 110,000 compounds or so, about 230 (0.21%) showed an effect of 50% or more. The list shows a part of the results.
# Molecular target: DPAP1 (Plasmodium falciparum, UniProt Q8IIJ9)
# Assay: primary screen, percent inhibition; read by cleavage of a fluorogenic dipeptide substrate; higher = more effect of the substance
# Design: species or system P. falciparum D10 trophozoite lysates; single well
# 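Further: 30 min substrate incubation versus DMSO and 10 µM JCP410 controls.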
# Sequence of DPAP1 (Q8IIJ9 whole entry, looked up): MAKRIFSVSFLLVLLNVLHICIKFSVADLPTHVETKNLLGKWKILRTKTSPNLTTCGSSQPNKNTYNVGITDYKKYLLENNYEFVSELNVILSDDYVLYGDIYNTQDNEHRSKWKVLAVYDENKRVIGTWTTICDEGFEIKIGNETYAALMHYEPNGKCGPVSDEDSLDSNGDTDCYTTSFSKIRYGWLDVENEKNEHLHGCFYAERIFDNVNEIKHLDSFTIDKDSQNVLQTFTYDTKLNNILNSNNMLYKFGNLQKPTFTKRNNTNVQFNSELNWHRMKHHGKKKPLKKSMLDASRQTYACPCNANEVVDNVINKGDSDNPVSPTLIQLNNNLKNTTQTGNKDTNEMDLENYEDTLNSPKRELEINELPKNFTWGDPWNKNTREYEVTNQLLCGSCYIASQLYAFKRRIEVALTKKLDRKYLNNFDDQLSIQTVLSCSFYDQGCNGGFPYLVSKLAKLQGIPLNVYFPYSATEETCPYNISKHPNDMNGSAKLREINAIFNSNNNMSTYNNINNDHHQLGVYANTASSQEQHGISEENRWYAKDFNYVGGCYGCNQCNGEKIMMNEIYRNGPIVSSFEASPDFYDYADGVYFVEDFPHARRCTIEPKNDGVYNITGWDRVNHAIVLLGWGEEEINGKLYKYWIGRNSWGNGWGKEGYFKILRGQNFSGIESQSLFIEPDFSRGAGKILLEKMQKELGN
row,Compound,% Inhibition @ 10 uM [%]
1,COc1ccc(C(=O)NCCC2=CCCCC2)cc1Br,-5.56
2,Clc1ccc(-c2noc3ncnc(N4CCC5(CC4)OCCO5)c23)cc1,4.28
3,O=C(O)CCc1nnc2n(Cc3ccccc3Cl)c(=O)c3ccccc3n12,-2.41
4,CCOC(=O)N1CCC(NC(=O)c2ccc(CSc3nc4ccncc4[nH]3)cc2)CC1,-3.35
5,CCOc1ccc(-n2cc(-c3ccccc3)c3c(NCc4cccnc4)ncnc32)cc1,-3.56
6,Cc1ccc(C)n1CCCCNC(=O)CC#N,-3.04
7,O=S(=O)(Nc1cc(Cl)ccc1Cl)c1ccc2ccccc2c1,2.13
8,CCOc1ccccc1CNC(=O)c1cc2c(=O)oc3ccccc3c2s1,-0.631
9,Cc1cccc(NS(=O)(=O)c2cc(-c3onc(C)c3C)ccc2C)n1,3.2
10,Cc1ccc(S(=O)(=O)NC(Cc2ccccc2)C(=O)O)cc1C (stereo not drawn),-5.08
11,CCC(C)NC(=O)CN(Cc1ccc(Br)cc1)S(=O)(=O)c1ccc(Cl)cc1 (stereo not drawn),5.24
12,CN(C)CC(C)(C)CNC1CCCCCC1,-1.21
13,Cc1nc2sccn2c(=O)c1S(=O)(=O)NC(C)c1ccccc1 (stereo not drawn),1.13
14,N#Cc1nc(COc2ccc(Br)cc2)oc1NCCCn1ccnc1,0.343
15,Cc1ccc(NS(=O)(=O)c2ccc(NC(=O)[C@@H]3CCCC[C@@H]3C(=O)O)cc2)c(C)c1,10.3
16,CC(C)(C)c1cc(C(=O)CCN2CCOCC2)cc(C(C)(C)C)c1O,-7.8
17,O=C(CSc1nc2ccccc2[nH]1)Nc1nncs1,-2.39
18,Cc1ccccc1-n1c(C)cc(C(=O)O)c1C,2.1
19,CCCC1=C(O)C2N=CC=CC2=[N+](c2ccccn2)C1=O (stereo not drawn),0.235
20,Cc1cc(O)c(C2=NCCSC(c3cccc([N+](=O)[O-])c3)C2)c(=O)o1 (stereo not drawn),-5.28
21,CCCCOc1ccc(C2C(C#N)=C(N)Oc3[nH]nc(C(C)(C)C)c32)cc1 (stereo not drawn),0.919
22,CCCC(C)n1nc(O)c2c1NC(=O)CSC2c1ccccc1 (stereo not drawn),-0.666
23,CCOC(=O)C(Cc1c[nH]c2ccccc12)NC(=O)c1ccccc1Cl (stereo not drawn),0.035
24,N#C/C(=C/c1cn(Cc2ccccc2)c2ccccc12)C(=O)NCC1CCCO1 (stereo not drawn),0.131
25,O=C(NCc1ccncc1)NC12CC3CC(CC(C3)C1)C2,-4.42
26,CCCNCc1c(C(=O)O)c(C)n(Cc2cccc(Cl)c2)c1C,-1.92

row,Compound,% Inhibition @ 10 uM [%]
1,Cn1c(/C(C#N)=C(\O)c2ccc(S(=O)(=O)N3CCCCC3)cc2)nc2ccccc21,17.4
2,COc1cccc(C(=O)N2CCc3ccccc32)c1,-1.49
3,COc1cc(/C=C2\Sc3ccccc3C2=O)c(Br)cc1O,4.86
4,CC(C)c1ccc(NC(=O)COc2ccccc2)cc1,-0.67
5,Cc1cc(C)n(CCc2nc3c4ccccc4nc(NCCc4c[nH]c5ccccc45)n3n2)n1,-0.692
6,CC1=C(CCN(C)CCc2ccccn2)C(C)(C)CCC1,-2.02
7,O=C(O)COc1ccc2cc(Br)ccc2c1Br,-1.29
8,CCOc1ccc(N2CC(C(=O)Nc3cc(C(C)(C)C)ccc3OC)CC2=O)cc1 (stereo not drawn),-5.29
9,CCC(C)NC(=O)Nc1cn(C)c(=O)c2ccccc12 (stereo not drawn),4.68
10,CCOC(=O)c1c(CSCCN(CC)CC)oc2ccc(OC)cc12,3.66
11,COC(=O)/C=c1/sc2n(c1=O)C(C)=CC(C)(C)N=2,4.08
12,Cc1c2cnn(CC(=O)N3CCC4(CC3)OCCO4)c(=O)c2c(C)n1Cc1ccccc1F,-5.81
13,CCCn1cc2c(c1-c1ccc(Cl)cc1)c(=O)n(C)c(=O)n2C,0.366
14,O=C(O)c1cc(-c2cccc(Cl)c2)nc2[nH]nc(-c3ccccc3)c12,-4.18
15,CCOC(=O)c1c(-c2cccs2)csc1N,4.33
16,O=C(N/C(=C\c1ccco1)C(=O)N1CCN(C/C=C/c2ccccc2)CC1)c1ccccc1,2.09
17,CC(C)N(CCCNC(=O)c1cc2sccc2n1C)Cc1ccccc1,-4.85
18,O=C(O)c1sc2ccccc2c1Nc1ccccc1,4.57
19,O=C(NCC1CCCO1)c1cnn(-c2ccccc2)c1-n1cccc1 (stereo not drawn),-7.1
20,O=C(CN1CCCC1)Nc1ccc(Cc2ccc(NC(=O)CN3CCCC3)cc2)cc1,-0.865
21,CC1=C(c2ccc(C)cc2)S(=O)(=O)N=C1NC1CCCC(C)C1C (stereo not drawn),3.87
22,COc1ccc(C2C3C(=NN2C(C)=O)C2CCN3CC2)cc1OC (stereo not drawn),-7.27
23,COc1cc(C(=O)Nc2ccc(C)c(F)c2)ccc1OC(F)F,0.316
24,CCn1cc(/C=C(\NC(=O)c2ccccc2OC)C(=O)NCc2ccccc2)c2ccccc21,-7.27
25,COc1ccc(CNCC(=O)O)cc1,1.42
